Data from PubChem BioAssay AID1476 (National Center for Advancing Translational Sciences (NCATS), 2009).
Screen size: about 200,000 compounds; about 4,500 (2.2%) were called active. The shares of active, inactive and inconclusive entries below differ from those in the screen. Calls come from the whole dose curve; as a rule, active = well fitted inhibition curve with a large enough effect; inconclusive = small, poorly fitted or top-dose-only effect, or effect the other way; inactive = flat fitted curve, though single readings scatter. Potencies beside an inconclusive call are fits to weak or partial responses and may not hold up.

The molecules below were run against Cruzipain (Trypanosoma cruzi) (UniProt P25779) (assay: qHTS Assay for Promiscuous and Specific Inhibitors of Cruzain (without detergent)). Settings: purified cruzain, Z-FR-AMC fluorescence, no detergent.
Method in brief: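 Purified cruzain at 1.5 nM, pre-incubated 15 min with compound at room temperature in 100 mM sodium acetate pH 5.5, 5 mM DTT, 0.00005% Triton X-100. Reaction started with 2 uM Z-FR-AMC; AMC fluorescence increase over 60 s gives rate.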
Note: nearly all actives have a fitted effect of over 40% in size.
Potency is the fitted concentration of half-maximal effect; tags give direction and shape of the fitted curve.
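Throughout, for max response, negative = inhibition: plate controls were enzyme without inhibitor for no effect and buffer without enzyme for full effect.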

Chain of UniProt P25779 (P25779 whole entry, looked up): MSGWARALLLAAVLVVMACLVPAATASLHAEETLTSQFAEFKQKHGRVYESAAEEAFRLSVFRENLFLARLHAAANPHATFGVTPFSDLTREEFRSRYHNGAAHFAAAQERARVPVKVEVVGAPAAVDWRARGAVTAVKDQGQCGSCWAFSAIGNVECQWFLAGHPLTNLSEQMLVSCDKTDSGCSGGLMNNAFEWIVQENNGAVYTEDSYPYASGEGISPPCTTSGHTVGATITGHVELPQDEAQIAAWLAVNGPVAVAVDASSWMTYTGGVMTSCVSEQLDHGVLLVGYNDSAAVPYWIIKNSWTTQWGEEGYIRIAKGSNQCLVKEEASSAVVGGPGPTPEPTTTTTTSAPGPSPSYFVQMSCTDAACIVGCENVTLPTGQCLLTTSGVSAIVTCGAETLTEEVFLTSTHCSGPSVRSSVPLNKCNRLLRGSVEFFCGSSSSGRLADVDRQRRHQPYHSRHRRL

Row | Compound | max response, negative = inhibition | Potency
1 | COc1ccc(NC(=O)C(C)Sc2cc(-c3ccccc3)nc(C)n2)cc1Cl (configuration not stated) | inactive: -13.9% | 
2 | CCOc1ccccc1N1CC(O)=C(c2nc3ccccc3s2)C1=N |  | inconclusive: 31.6 µM [inhibitor, single point]
3 | Cc1nc(OCc2ccccc2)c2sc3nc4c(cc3c2n1)COC(C)(C)C4 |  | inconclusive: 39.8 µM [activator, single point]
4 | O=C(Cc1ccccc1)Nc1nnc(-c2cccs2)s1 |  | active: 25.1 µM
5 | O=Nc1c(O)n(Cc2ccc(Cl)cc2)c2ccccc12 | inactive: -13.5% | 
6 | CC1(C)COC(Nc2ccc(Cl)cc2)=N1 |  | inconclusive: 31.6 µM [inhibitor, single point]
7 | O=C(/C=C/c1ccc(Br)cc1)c1ccc(NC2=NCCCS2)cc1 |  | inconclusive: 39.8 µM [inhibitor, single point]
8 | CC(C)(C)n1nnnc1C(c1cccnc1)N1CCN(c2cccc(C(F)(F)F)c2)CC1 (configuration not stated) |  | inconclusive: 31.6 µM [activator, single point]
9 | COc1ccc(C2C(C(=O)OCC(=O)Nc3ccc(C)cc3)CCC(=O)N2c2ccc(OC)cc2)cc1 (configuration not stated) |  | inconclusive: 39.8 µM [activator, single point]
10 | C/C(=N\NC(=O)CNC(=O)C(c1ccccc1)c1ccccc1)c1ccc(C(C)(C)C)cc1 |  | inconclusive: 39.8 µM [inhibitor, single point]
11 | O=C(CN1C(=O)CC(c2ccco2)Sc2ccccc21)Nc1ccc(Br)cc1 (configuration not stated) |  | inconclusive: 25.1 µM [inhibitor, single point]
12 | COc1ccccc1-c1noc(-c2ccc(NCc3cccnc3)c([N+](=O)[O-])c2)n1 |  | inconclusive: 39.8 µM [inhibitor, single point]
13 | CCCSc1nnc2c(n1)OC(c1ccc(OCC(=O)O)cc1)Nc1ccccc1-2 (configuration not stated) | inactive: -12.2% | 
14 | Cc1cc(C)cc(NS(=O)(=O)c2ccc(NC(=S)NC(=O)c3cccs3)cc2)c1 |  | active: 25.1 µM
15 | Cn1cc(C(=O)NCCc2ccccc2)c(=O)c2cc(S(=O)(=O)N3CCCCCC3)ccc21 | inactive: -5.09% | 
16 | O=C(COc1cccc2ccccc12)N/N=C/C=C/c1ccccc1 |  | inconclusive: 25.1 µM [inhibitor, single point]
17 | O=C1c2nc3ccccn3c2C(=O)N1Cc1ccccc1 |  | inconclusive: 31.6 µM [inhibitor, single point]
18 | Cc1ncsc1C(=O)N1N=C2/C(=C/c3ccccc3)CCCC2C1c1ccccc1 (configuration not stated) |  | inconclusive: 31.6 µM [inhibitor, single point]
19 | CCCc1nc2oc3c(OCC)ncnc3c2c2c1COC(C)(C)C2 |  | inconclusive: 39.8 µM [activator, single point]
20 | O=C(C1CCCN(S(=O)(=O)c2cnc[nH]2)C1)N(CCc1ccccc1)Cc1ccccc1 (configuration not stated) |  | inconclusive: 31.6 µM [activator, single point]
21 | COc1ccc(N2CC(C)Cn3c2nc2c3c(=O)n(Cc3ccc(F)cc3)c(=O)n2C)c(OC)c1 (configuration not stated) |  | inconclusive: 31.6 µM [activator, single point]
22 | CCc1cccc(NC(=O)CN(c2ccc(C)cc2)S(=O)(=O)c2cccs2)c1 | inactive: -12.5% | 
23 | Cc1cccc2cc(CN(Cc3cccs3)C3(c4nnnn4C4CCCC4)CCCC3)c(=O)[nH]c12 |  | inconclusive: 25.1 µM [inhibitor, single point]

Row | Compound | max response, negative = inhibition | Potency
24 | Cc1ccc(C)c(N2CCN(C(=O)C3CCN(c4nnc(N5CCCC5=O)s4)CC3)CC2)c1 |  | inconclusive: 25.1 µM [activator, partial curve]
25 | N#Cc1c(Cl)nc(Cl)c2c1CCN(Cc1ccccc1)C2 | inactive: -21.8% | 
26 | CCCCCCCNC(=O)C1CC(=O)N(C)C(=Nc2ccc(OC)cc2)S1 (configuration not stated) |  | inconclusive: 25.1 µM [activator, single point]
27 | O=C(c1cnc(N2CCCCC2)c2ccccc12)N1CCN(c2cccc(Cl)c2)CC1 | inactive: -4.82% | 
28 | COC(=O)c1ccc(/C=N/Nc2nc(-c3ccc(C)cc3)cs2)cc1 |  | active: 12.6 µM
29 | COc1c(C)cc(Br)cc1C(=O)Nc1cccc(-c2nc3ncccc3o2)c1 |  | inconclusive: 31.6 µM [activator, single point]
30 | O=C(CSc1nc2ccccc2c(=O)n1Cc1ccc(Cl)cc1)NCc1cccs1 |  | inconclusive: 31.6 µM [inhibitor, single point]
31 | CCS(=O)(=O)N1Cc2ccccc2CC1C(=O)Nc1nc2ccccc2s1 (configuration not stated) |  | inconclusive: 25.1 µM [inhibitor, single point]
32 | Cc1cccc(CSc2nc3sc(C)c(C)c3c(=O)n2Cc2ccco2)c1 |  | inconclusive: 25.1 µM [inhibitor, partial curve]
33 | CCc1ccc(S(=O)(=O)Nc2cc3c(cc2N2CCOCC2)n(C)c(=O)c(=O)n3C)cc1 |  | inconclusive: 20 µM [activator, partial curve]
34 | O=C(CSc1nc2ccccc2c(=O)n1-c1ccc(F)cc1)Nc1ccc(N2CCOCC2)cc1 | inactive: 6.56% | 
35 | CCC1(C)Cc2ccccc2-c2nc(NCCO)n(-c3ccc(C)cc3)c(=O)c21 (configuration not stated) |  | inconclusive: 31.6 µM [activator, single point]
36 | CCOc1ccccc1C(=O)N(Cc1ccco1)Cc1ccccc1F | inactive: 3.06% | 
37 | Cc1cccn2c(=O)c3cc(C(=O)NCCCN4CCCC4=O)n(C)c3nc12 |  | inconclusive: 39.8 µM [activator, single point]
38 | COC(=O)c1ccccc1NC(=O)CSc1nc2nc(C)cc(C)n2n1 | inactive: 7.19% | 
39 | COc1cc(/C=N/OCC(=O)Nc2cc(C)cc(C)c2)ccc1OCc1ccc(Cl)cc1 |  | inconclusive: 20 µM [inhibitor, partial curve, poor fit]
40 | CCN(CC)S(=O)(=O)c1ccc(N2C(=O)CC2(/C=C/c2ccccc2)C(=O)NC2CCCC2)cc1 (configuration not stated) |  | inconclusive: 39.8 µM [inhibitor, single point]
41 | CC(C)(C)CC(C)(C)NC(=S)Nc1ccc(S(=O)(=O)N2CCOCC2)cc1 |  | inconclusive: 31.6 µM [activator, single point]
42 | Cc1ccc(C)c2[nH]c(=O)c(CN(Cc3ccc4c(c3)OCO4)Cc3nnnn3Cc3ccco3)cc12 | inactive: -6.89% | 
43 | Cc1ccc(OCC(=O)Nc2sc3c(c2C(N)=O)CCCC3)c(C(C)(C)C)c1 | inactive: 1.89% | 
44 | COCCNC(=S)N1C2CCC1CC(NC(=O)NC13CC4CC(CC(C4)C1)C3)C2 (configuration not stated) |  | inconclusive: 31.6 µM [activator, single point]
45 | COCCNC(=O)c1ccc(-c2nc(CN3CCc4ccccc43)c(C)o2)cc1 |  | inconclusive: 39.8 µM [activator, single point]
46 | Cc1ccc(-n2c(SCC(=O)Nc3ccc4c(c3)OCCO4)nc3c([nH]c4ccccc43)c2=O)cc1 |  | active: 25.1 µM

Row | Compound | max response, negative = inhibition | Potency
47 | COC(=O)c1cc(OC)c(OC)cc1NC(=O)c1ccc(C)o1 |  | inconclusive: 31.6 µM [activator, partial curve]
48 | COc1ccc(S(=O)(=O)N2Cc3ccccc3CC2C(=O)Nc2ccc3c(c2)OCO3)cc1 (configuration not stated) |  | active: 25.1 µM
49 | N#Cc1ccc(CSc2nnc(-c3ccc(Br)cc3)o2)cc1 | inactive: -5.4% | 
50 | CCS(=O)(=O)c1ccccc1C(=O)N1CCN(c2nc3ccccc3s2)CC1 |  | inconclusive: 39.8 µM [activator, single point]
51 | CC(=O)Nc1ccc(-c2c(C)cc3oc(=O)cc(-c4ccccc4)c3c2C)cc1 | inactive: -22.2% | 
52 | COC(=O)c1ccc(CSc2nnc(NC(=O)C3CC(=O)N(c4ccc5c(c4)OCCO5)C3)s2)cc1 (configuration not stated) | inactive: 0.231% | 
53 | COC(=O)CN1C(C(=O)c2ccccc2)=C(OC(=O)c2ccc(C)cc2)c2ccccc2S1(=O)=O | inactive: -29.2% | 
54 | Clc1cccc(CSc2ccc(-c3cccs3)nn2)c1 | inactive: -5.52% | 
55 | COc1ccccc1Cn1c(SCC(=O)C(C)(C)C)nc2ccccc2c1=O | inactive: -1.28% | 
56 | CC(C)Cc1nc2sc3c(NCc4ccco4)ncnc3c2c2c1COC(C)(C)C2 |  | inconclusive: 7.94 µM [activator, full curve, poor fit]
57 | CC1CCCC2(C1)NC(=S)c1c(sc3c1CCCC3)N2 (configuration not stated) |  | inconclusive: 31.6 µM [inhibitor, single point]
58 | C1CCN(CC[C@@H]2CCCCN2)CC1 | inactive: -8.56% | 
59 | CCOC(=O)c1c(C)oc2ncnc(Nc3cc(Cl)ccc3OC)c12 | inactive: -10.6% | 
60 | O=c1c(Cl)c(N2CCN(c3ccc(F)cc3)CC2)cnn1-c1nc2ccccc2s1 |  | inconclusive: 25.1 µM [inhibitor, single point]
61 | Cn1cc(C(c2ccccc2)c2ccc(Cl)s2)c2ccccc21 (configuration not stated) |  | inconclusive: 39.8 µM [inhibitor, single point]
62 | CCOc1cccc(NC(=O)C2CC(=O)N(C)C(=Nc3ccc(F)cc3)S2)c1 (configuration not stated) |  | inconclusive: 39.8 µM [activator, single point]
63 | N#Cc1cnn(-c2ncnc3sc(-c4ccccc4)cc23)c1N |  | inconclusive: 25.1 µM [inhibitor, single point]
64 | CCCCN(C)CC(O)Cn1cc(/C=C/C(=O)c2ccc(C)cc2)c2ccccc21 (configuration not stated) |  | inconclusive: 39.8 µM [inhibitor, single point]
65 | O=C(Nc1ccc(C(=O)OCc2cc(=O)n3c4c(sc3n2)CCCC4)cc1)c1ccc(Cl)cc1 | inactive: -1.41% | 
66 | CCOc1ccccc1-c1nc(-c2ccc(NC(=O)Cc3ccccc3OC)cc2)no1 |  | active: 25.1 µM
67 | COC(=O)c1ccc(NC(=O)Cn2c(=O)nc(-c3ccccc3)c3ccccc32)cc1 | inactive: 11.1% | 
